# Test results: the supplement of paper PMC8728848
# The other results are listed elsewhere or left out.
# B1: AAL (Agrocybe aegerita), Q6WY08 (protein)
# chain: MQGVNIYNISAGTSVDLAAPVTTGDIVTFFSSALNLNAGAGNPNNTTLNLFAENGAYLLHIAHRLQENVIIFNSRQPDGPWLVEQRVSDVANQFAGIDGKAMVTVFDHGDKYQVVINEKTVIQYTKQISGLTLSLSYNATEETSIFSTVVEAVTYTGLALEHHHHHH
# Legend:
# Assay in all cases: glycan array binding signal (z-score within array); higher = stronger binding
# Details in all cases: glycan notation: IUPAC condensed, linker removed; mutation: F63H
# Fuc(a1-2)Gal = molecular target: Fuc(a1-2)Gal
# Summary of the method: (§1)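 The binding signal is a Z-score computed within each array. Data were drawn from 3228 arrays in the Consortium for Functional Glycomics database, restricted to those with a known protein sequence. Scores were averaged over arrays of the same protein sequence at different concentrations or buffers, and over linkers, and negative values can be taken as non-binding.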
# Fuc(a1-2)Gal(b1-3)GalNAc = molecular target: Fuc(a1-2)Gal(b1-3)GalNAc
# Summary of the method: as §1
# [1] = molecular target: Fuc(a1-2)Gal(b1-3)GalNAc(a1-3)[Fuc(a1-2)]Gal(b1-4)Glc
# Summary of the method: as §1
# [2] = molecular target: Fuc(a1-2)Gal(b1-3)GalNAc(a1-3)[Fuc(a1-2)]Gal(b1-4)GlcNAc
# Summary of the method: as §1
# [3] = molecular target: Fuc(a1-2)Gal(b1-3)GalNAc(b1-3)Gal
# Summary of the method: as §1
# [4] = molecular target: Fuc(a1-2)Gal(b1-3)GalNAc(b1-3)Gal(a1-4)Gal(b1-4)Glc
# Summary of the method: as §1
# [5] = molecular target: Fuc(a1-2)Gal(b1-3)GalNAc(b1-4)[Neu5Ac(a2-3)]Gal(b1-4)Glc
# Summary of the method: as §1
# Fuc(a1-2)Gal(b1-3)GlcNAc = molecular target: Fuc(a1-2)Gal(b1-3)GlcNAc
# Summary of the method: as §1
# [6] = molecular target: Fuc(a1-2)Gal(b1-3)GlcNAc(b1-2)Man(a1-3)[Fuc(a1-2)Gal(b1-3)GlcNAc(b1-2)Man(a1-6)]Man(b1-4)GlcNAc(b1-4)GlcNAc
# Summary of the method: as §1
# [7] = molecular target: Fuc(a1-2)Gal(b1-3)GlcNAc(b1-2)Man(a1-3)[Fuc(a1-2)Gal(b1-3)GlcNAc(b1-2)Man(a1-6)]Man(b1-4)GlcNAc(b1-4)[Fuc(a1-6)]GlcNAc
# Summary of the method: as §1
# [8] = molecular target: Fuc(a1-2)Gal(b1-3)GlcNAc(b1-3)Gal(b1-4)Glc
# Summary of the method: as §1
# [9] = molecular target: Fuc(a1-2)Gal(b1-3)GlcNAc(b1-3)GalNAc
# Summary of the method: as §1
# [10] = molecular target: Fuc(a1-2)Gal(b1-3)GlcNAc(b1-3)[Fuc(a1-2)Gal(b1-3)GlcNAc(b1-6)]GalNAc
# Summary of the method: as §1
# [11] = molecular target: Fuc(a1-2)Gal(b1-3)GlcNAc(b1-3)[Gal(b1-4)GlcNAc(b1-6)]Gal(b1-4)Glc
# Summary of the method: as §1
# [12] = molecular target: Fuc(a1-2)Gal(b1-3)GlcNAc(b1-3)[Neu5Ac(a2-6)Gal(b1-4)GlcNAc(b1-6)]Gal(b1-4)Glc
# Summary of the method: as §1
# [13] = molecular target: Fuc(a1-2)Gal(b1-3)GlcNAc6S
# Summary of the method: as §1
# [14] = molecular target: Fuc(a1-2)Gal(b1-3)[Fuc(a1-4)]GlcNAc
# Summary of the method: as §1
# [15] = molecular target: Fuc(a1-2)Gal(b1-3)[Fuc(a1-4)]GlcNAc(b1-2)Man(a1-3)[Fuc(a1-2)Gal(b1-3)[Fuc(a1-4)]GlcNAc(b1-2)Man(a1-3)]Man(b1-4)GlcNAc(b1-4)GlcNAc
# Summary of the method: as §1
# [16] = molecular target: Fuc(a1-2)Gal(b1-3)[Fuc(a1-4)]GlcNAc(b1-2)Man(a1-3)[Fuc(a1-2)Gal(b1-3)[Fuc(a1-4)]GlcNAc(b1-2)Man(a1-6)]Man(b1-4)GlcNAc(b1-4)[Fuc(a1-6)]GlcNAc(b1-4)[Fuc(a1-6)]GlcNAc
# Summary of the method: as §1
# [17] = molecular target: Fuc(a1-2)Gal(b1-3)[Fuc(a1-4)]GlcNAc(b1-3)[Fuc(a1-3)[Gal(b1-4)]GlcNAc(b1-6)]Gal(b1-4)Glc
# Summary of the method: as §1
# [18] = molecular target: Fuc(a1-2)Gal(b1-3)[Fuc(a1-4)]GlcNAc(b1-3)[Gal(b1-4)GlcNAc(b1-6)]Gal(b1-4)Glc
# Summary of the method: as §1
# [19] = molecular target: Fuc(a1-2)Gal(b1-4)Fuc(a1-3)]GlcNAc(b1-2)Man(a1-3)[Fuc(a1-2)Gal(b1-4)[Fuc(a1-3)]GlcNAc(b1-2)Man(a1-6)]Man(b1-4)GlcNAc(b1-4)GlcNAc
# Summary of the method: as §1
# Fuc(a1-2)Gal(b1-4)Glc = molecular target: Fuc(a1-2)Gal(b1-4)Glc
# Summary of the method: as §1
# Fuc(a1-2)Gal(b1-4)Glc6S = molecular target: Fuc(a1-2)Gal(b1-4)Glc6S
# Summary of the method: as §1
# Fuc(a1-2)Gal(b1-4)GlcNAc = molecular target: Fuc(a1-2)Gal(b1-4)GlcNAc
# Summary of the method: as §1
# [20] = molecular target: Fuc(a1-2)Gal(b1-4)GlcNAc(b1-2)Man
# Summary of the method: as §1
# [21] = molecular target: Fuc(a1-2)Gal(b1-4)GlcNAc(b1-2)Man(a1-3)[Fuc(a1-2)Gal(b1-4)GlcNAc(b1-2)Man(a1-6)]Man(b1-4)GlcNAc(b1-4)GlcNAc
# Summary of the method: as §1
# [22] = molecular target: Fuc(a1-2)Gal(b1-4)GlcNAc(b1-2)Man(a1-3)[Fuc(a1-2)Gal(b1-4)GlcNAc(b1-2)Man(a1-6)]Man(b1-4)GlcNAc(b1-4)[Fuc(a1-6)]GlcNAc
# Summary of the method: as §1
# [23] = molecular target: Fuc(a1-2)Gal(b1-4)GlcNAc(b1-2)[Fuc(a1-2)Gal(b1-4)GlcNAc(b1-4)]Man(a1-3)[Fuc(a1-2)Gal(b1-4)GlcNAc(b1-2)Man(a1-6)]Man(b1-4)GlcNAc(b1-4)GlcNAc
# Summary of the method: as §1
# [24] = molecular target: Fuc(a1-2)Gal(b1-4)GlcNAc(b1-3)Gal(b1-4)GlcNAc
# Summary of the method: as §1
# [25] = molecular target: Fuc(a1-2)Gal(b1-4)GlcNAc(b1-3)Gal(b1-4)GlcNAc(b1-2)Man(a1-3)[Fuc(a1-2)Gal(b1-4)GlcNAc(b1-3)Gal(b1-4)GlcNAc(b1-2)Man(a1-6)]Man(b1-4)GlcNAc(b1-4)GlcNAc
# Summary of the method: as §1
# [26] = molecular target: Fuc(a1-2)Gal(b1-4)GlcNAc(b1-3)Gal(b1-4)GlcNAc(b1-3)Gal(b1-4)GlcNAc
# Summary of the method: as §1
# [27] = molecular target: Fuc(a1-2)Gal(b1-4)GlcNAc(b1-3)GalNAc
# Summary of the method: as §1
# [28] = molecular target: Fuc(a1-2)Gal(b1-4)GlcNAc(b1-3)[Fuc(a1-2)Gal(b1-4)GlcNAc(b1-6)]GalNAc
# Summary of the method: as §1
# [29] = molecular target: Fuc(a1-2)Gal(b1-4)GlcNAc(b1-3)[Fuc(a1-3)[Gal(b1-4)]GlcNAc(b1-6)]Gal(b1-4)Glc
# Summary of the method: as §1
# [30] = molecular target: Fuc(a1-2)Gal(b1-4)GlcNAc(b1-6)GalNAc
# Summary of the method: as §1
# [31] = molecular target: Fuc(a1-2)Gal(b1-4)GlcNAc6S
# Summary of the method: as §1
# [32] = molecular target: Fuc(a1-2)Gal(b1-4)[Fuc(a1-3)]GlcNAc
# Summary of the method: as §1
# [33] = molecular target: Fuc(a1-2)Gal(b1-4)[Fuc(a1-3)]GlcNAc(b1-2)Man(a1-3)[Fuc(a1-2)Gal(b1-4)[Fuc(a1-3)]GlcNAc(b1-2)Man(a1-6)]Man(b1-4)GlcNAc(b1-4)[Fuc(a1-6)]GlcNAc
# Summary of the method: as §1
# [34] = molecular target: Fuc(a1-2)Gal(b1-4)[Fuc(a1-3)]GlcNAc(b1-2)[Fuc(a1-2)Gal(b1-4)[Fuc(a1-3)]GlcNAc(b1-4)]Man(a1-3)[Fuc(a1-2)Gal(b1-4)[Fuc(a1-3)]GlcNAc(b1-2)Man(a1-6)]Man(b1-4)GlcNAc(b1-4)GlcNAc
# Summary of the method: as §1
# [35] = molecular target: Fuc(a1-2)Gal(b1-4)[Fuc(a1-3)]GlcNAc(b1-3)Gal(b1-4)[Fuc(a1-3)]GlcNAc
# Summary of the method: as §1
# [36] = molecular target: Fuc(a1-2)Gal(b1-4)[Fuc(a1-3)]GlcNAc(b1-3)Gal(b1-4)[Fuc(a1-3)]GlcNAc(b1-3)Gal(b1-4)[Fuc(a1-3)]GlcNAc
# Summary of the method: as §1
# [37] = molecular target: Fuc(a1-2)Gal(b1-4)[Fuc(a1-3)]GlcNAc(b1-3)GalNAc
# Summary of the method: as §1
# [38] = molecular target: Fuc(a1-2)Gal(b1-4)[Fuc(a1-3)]GlcNAc(b1-3)[Neu5Ac(a2-6)Gal(b1-4)GlcNAc(b1-6)]Gal(b1-4)Glc
# Summary of the method: as §1
# [39] = molecular target: Fuc(a1-2)Gal3S(b1-4)GlcNAc
# Summary of the method: as §1
binder,measurement,setting,value
B1,glycan array binding signal (z-score),Fuc(a1-2)Gal,-0.139
same,glycan array binding signal (z-score),Fuc(a1-2)Gal(b1-3)GalNAc,-0.198
same,glycan array binding signal (z-score),[1],-0.013
same,glycan array binding signal (z-score),[2],-0.252
same,glycan array binding signal (z-score),[3],0.092
same,glycan array binding signal (z-score),[4],-0.075
same,glycan array binding signal (z-score),[5],0.857
same,glycan array binding signal (z-score),Fuc(a1-2)Gal(b1-3)GlcNAc,-0.083
same,glycan array binding signal (z-score),[6],0.176
same,glycan array binding signal (z-score),[7],-0.225
same,glycan array binding signal (z-score),[8],-0.394
same,glycan array binding signal (z-score),[9],0.099
same,glycan array binding signal (z-score),[10],0.456
same,glycan array binding signal (z-score),[11],-0.05
same,glycan array binding signal (z-score),[12],0.013
same,glycan array binding signal (z-score),[13],0.045
same,glycan array binding signal (z-score),[14],-0.413
same,glycan array binding signal (z-score),[15],0.03
same,glycan array binding signal (z-score),[16],0.129
same,glycan array binding signal (z-score),[17],0.734
same,glycan array binding signal (z-score),[18],0.22
same,glycan array binding signal (z-score),[19],0.548
same,glycan array binding signal (z-score),Fuc(a1-2)Gal(b1-4)Glc,-0.144
same,glycan array binding signal (z-score),Fuc(a1-2)Gal(b1-4)Glc6S,-0.133
same,glycan array binding signal (z-score),Fuc(a1-2)Gal(b1-4)GlcNAc,-0.308
same,glycan array binding signal (z-score),[20],-0.262
same,glycan array binding signal (z-score),[21],0.43
same,glycan array binding signal (z-score),[22],-0.137
same,glycan array binding signal (z-score),[23],-0.02
same,glycan array binding signal (z-score),[24],-0.502
same,glycan array binding signal (z-score),[25],0.258
same,glycan array binding signal (z-score),[26],-0.151
same,glycan array binding signal (z-score),[27],0.093
same,glycan array binding signal (z-score),[28],-0.28
same,glycan array binding signal (z-score),[29],-0.347
same,glycan array binding signal (z-score),[30],0.148
same,glycan array binding signal (z-score),[31],-0.578
same,glycan array binding signal (z-score),[32],0.043
same,glycan array binding signal (z-score),[33],-0.037
same,glycan array binding signal (z-score),[34],0.013
same,glycan array binding signal (z-score),[35],-0.162
same,glycan array binding signal (z-score),[36],-0.232
same,glycan array binding signal (z-score),[37],-0.447
same,glycan array binding signal (z-score),[38],-0.35
same,glycan array binding signal (z-score),[39],-0.545
